# Results as given in PubChem BioAssay AID485281 (National Center for Advancing Translational Sciences (NCATS), 2010).
# Values joined by “and” are separate entries in the source; they are usually repeats but may differ in a detail not shown here. Equal values may be shown once. Out of some 350,000 compounds screened, about 260 (0.074%) were called active. This list was built around the results that the source calls inconclusive (neither active nor inactive); the mix of calls is not that of the screen. The call rests on the fitted dose curve; in most records, active means well fitted inhibition curve with a large enough effect; inconclusive means small, poorly fitted or top-dose-only effect; inactive means no such curve, though single readings can be large or run the other way. Potencies beside an inconclusive call are fits to weak or partial responses and may not hold up. Where a SMILES comes first, the peptide text is derived from it. Bridges are numbered along the chain shown (N, C = ends). [ ]: non-standard residue; d: D form. The star is where a group is joined. ξ: configuration not given here. ξDab(CH2SO3H) = NC(CCNCS(=O)(=O)O)C(=O)O; Heptanoyl(6-Me) = CC(C)CCCCC(=O)*; Dab = NCC[CH](N)C(=O)O
# Biological target: Ferritin light chain (Equus caballus) (UniProt P02791)
# Chain of UniProt P02791 (P02791 whole entry, looked up): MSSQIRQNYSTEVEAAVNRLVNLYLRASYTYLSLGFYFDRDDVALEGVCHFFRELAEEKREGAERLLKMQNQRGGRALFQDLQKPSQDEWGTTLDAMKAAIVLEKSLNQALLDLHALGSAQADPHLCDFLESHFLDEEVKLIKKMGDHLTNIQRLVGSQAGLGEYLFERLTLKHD
# Assay: qHTS Assay for Identification of Novel General Anesthetics; further: nearly all actives have a fitted effect of over 20% in size
# Details: apoferritin/1-aminoanthracene competitive binding, fluorescence; activity change, negative = displacement: at 77.5 µM (top of the series)
# Summary of the method: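 10 uM apoferritin + 50% sat. 1-AMA, PBS; cpd 10 min RT; Ex380/Em535 endpoint; normalized to free probe vs complex; 4-param Hill fit; propofol titration as pos. ctrl.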
# On the % scale 0 is the no-effect control and ±100 the full control effect; potency means the concentration at half of the fitted maximal effect; tags describe the fitted curve by direction and shape.
Structure (SMILES),Potency,"activity change, negative = displacement"
Cc1noc(C)c1COC(=O)COc1cccc2c1OC(C)(C)C2,"inconclusive: 28.2 µM [inhibitor, partial curve]",
CC(C)C12CN3CC(C(C)C)(CN(C1)C3c1ccccc1O)C2=O (stereo not drawn),"inconclusive: 28.2 µM [inhibitor, partial curve]",
Cc1cccc(NS(=O)(=O)c2cc(C(=O)N3CCCCCC3)ccc2C)c1,"inconclusive: 20 µM [inhibitor, partial curve]",
CC(=O)N1CCc2c(sc3c2c(=O)n(CCc2ccccc2)c(=O)n3CC(=O)Nc2ccc(C)c(F)c2)C1,,inactive: 5.26%
Cc1[nH]c2ccccc2c1C1(O)C(=O)N(Cc2ccccc2Cl)c2ccccc21 (stereo not drawn),"inconclusive: 11.2 µM [inhibitor, partial curve]",
C=CCN(CC=C)S(=O)(=O)c1ccc(NC(=S)NC(=O)/C=C/c2ccccc2)cc1,"inconclusive: 4.47 µM [inhibitor, full curve, poor fit]",
CCC1CN(C(=O)Nc2ccc(Br)cc2F)c2ccccc2S1 (stereo not drawn),"inconclusive: 25.1 µM [inhibitor, partial curve]",
O=C(COC(=O)c1ccc2c(c1)OCO2)NCc1ccc2c(c1)OCO2,"inconclusive: 35.5 µM [inhibitor, partial curve]",
CCOC(=O)CN1C(=O)C2Cc3ccccc3CN2C1=S (stereo not drawn),"inconclusive: 35.5 µM [inhibitor, partial curve]",
O=C(Oc1ccc(Cl)c2cccnc12)c1cccc([N+](=O)[O-])c1,,inactive: -14%
COc1ccc(N2C(=O)/C(=C/c3ccc([N+](=O)[O-])cc3)C=C2c2ccccc2)cc1,"inconclusive: 31.6 µM [inhibitor, partial curve]",
COc1ccc(C(C)(C)C)cc1NC(=O)c1cncc(Br)c1,"inconclusive: 50.1 µM [inhibitor, single point]",
CCN(c1ccc(N=Cc2c(O)n(Cc3ccc(OC)cc3)c(=O)c3ccccc23)cc1)C(C)C,,inactive: -0.402%
COc1cccc(CN(Cc2cccnc2)S(=O)(=O)c2ccc(-n3cnnn3)c(C)c2)c1,"inconclusive: 39.8 µM [inhibitor, partial curve]",
O=C(NC(=S)Nc1ccc(N2CCCCC2)cc1)c1ccco1,"inconclusive: 22.4 µM [inhibitor, partial curve]",
Cc1ccc(C)c(N2CCN(CCCNC(=O)Cn3cc4c(n3)CCCCC4)CC2)c1,,inactive: -5.15%
O=C(COC(=O)c1cc2ccccc2o1)c1ccccc1,"inconclusive: 28.2 µM [inhibitor, partial curve]",
Cc1cc(C(=O)CN2C(=O)NC3(CCCCC3)C2=O)c(C)n1Cc1ccco1,"inconclusive: 20 µM [inhibitor, partial curve]",
Cc1ccc(C(=O)c2c(C)oc3c2C(=O)C(=O)c2ccccc2-3)cc1,"inconclusive: 15.8 µM [inhibitor, partial curve]",
CC(C)Oc1ccc(C(=O)Nc2nc3ccccc3[nH]2)cc1,,inactive: -5.53%
O=C1CN(c2nc(-c3cccs3)nc3sc4c(c23)CCCC4)CCN1,,inactive: -4.04%

Structure (SMILES),Potency,"activity change, negative = displacement"
Cc1ccc(S(=O)(=O)/C(C#N)=C/c2c(N3CCC(C(N)=O)CC3)nc3c(C)cccn3c2=O)cc1,"inconclusive: 2 µM [inhibitor, full curve]",
Cc1ccc(-n2c(SCC(=O)NCC3CCCO3)nnc2-c2ccoc2C)cc1 (stereo not drawn),,inactive: -6.05%
Cc1cc(N2C(=O)C3C4CCC(C4)C3C2=O)no1 (stereo not drawn),"inconclusive: 25.1 µM [inhibitor, partial curve]",
O=C(NC(=O)N1CCN(c2cccc(Cl)c2)CC1)c1ccc(Cl)cc1,"inconclusive: 15.8 µM [inhibitor, partial curve]",
COc1ccccc1-c1ccc(=O)n(CC(=O)NC(C)(C)C)n1,"inconclusive: 22.4 µM [inhibitor, partial curve]",
O=C(Cn1nnc(N2CCCC2)n1)N/N=C/c1ccc(Cl)cc1,"inconclusive: 39.8 µM [inhibitor, single point]",
CCC(C)C1NC(=O)C(CCNCS(=O)(=O)O)NC(=O)C(NC(=O)C(CCNCS(=O)(=O)O)NC(=O)C(NC(=O)C(CCNCS(=O)(=O)O)NC(=O)CCCCC(C)C)C(C)O)CCNC(=O)C(C(C)O)NC(=O)C(CCNCS(=O)(=O)O)NC(=O)C(CCNCS(=O)(=O)O)NC(=O)C(C(C)CC)NC1=O (stereo not drawn) ({Heptanoyl(6-Me)}-[ξDab(CH2SO3H)]T[ξDab(CH2SO3H)][Dab][ξDab(CH2SO3H)]II[ξDab(CH2SO3H)][ξDab(CH2SO3H)]T; lactam 4-C; configuration not given here),"inconclusive: 25.1 µM [inhibitor, single point]",
C=CCn1c(SCC(=O)N2CCOCC2)nc2scc(-c3ccco3)c2c1=O,"inconclusive: 17.8 µM [inhibitor, partial curve]",
CCCCCCCCCCCCC/C=C/[C@@H](O)[C@H](CO)NC(=O)CCCCC,,inactive: -17.1%
Oc1ccc(/C=N/N(c2ccccc2)c2ccccc2)c(O)c1O,"inconclusive: 35.5 µM [inhibitor, single point]",
CCn1nnc(NC(=S)NC(=O)c2ccc(-c3cccc(Cl)c3)o2)n1,"inconclusive: 39.8 µM [inhibitor, single point]",
O=[N+]([O-])c1ccc(N=NNc2ccccc2)cc1,"inconclusive: 25.1 µM [inhibitor, partial curve]",
Cc1ccc(S(=O)(=O)N[C@H]2COC(=O)C/C=C\[C@@H](C)COC(=O)C/C=C\[C@@H]2C)cc1,,inactive: -13.3% [at 15.3 µM] and inactive: -13.9% [at 15.3 µM]
CCCN1C(=O)C(O)(CC(=O)c2ccc(CC)cc2)c2cc(Br)ccc21 (stereo not drawn),"inconclusive: 15.8 µM [inhibitor, partial curve]",
Cc1cccc(CSC2=NCCN2C(=O)c2ccco2)c1,"inconclusive: 28.2 µM [inhibitor, partial curve]",
Cc1cccc(C)c1-n1ncc(C(=O)NCc2ccc3c(c2)OCO3)c1C1CCN(C(=O)OC(C)(C)C)CC1,"inconclusive: 5.01 µM [inhibitor, single point]",
Cc1nn(-c2ccc(Cl)cc2)c2sc(C(=O)N3CCN(C(=O)c4ccco4)CC3)cc12,,inactive: -11.8%
COc1cc(/C=N\Nc2nc(-c3ccc(C)cc3)c(NC(C)=O)s2)ccc1O,,inactive: 5.09%
CCOC(=O)CSC1=C(C#N)C(c2ccco2)C(C(=O)Nc2cccc(C(F)(F)F)c2)=C(C)N1 (stereo not drawn),"inconclusive: 12.6 µM [inhibitor, partial curve]",
Cc1ccc(C(=O)NC2CC3CCCC(C2)N3Cc2ccccc2)cc1 (stereo not drawn),,inactive: -2.48%
Cc1cccc(C(=O)N2CCC(Cc3ccccc3)CC2)c1[N+](=O)[O-],"inconclusive: 50.1 µM [inhibitor, single point]",

Structure (SMILES),Potency,"activity change, negative = displacement"
Cc1ccc(NC(=O)c2cnn(-c3ccccc3)c2NC(=O)c2ccco2)cc1C,"inconclusive: 25.1 µM [inhibitor, partial curve]",
CC(=O)C(=Nc1ccc(Cl)cc1Cl)NNc1cccc(Cl)c1,"inconclusive: 12.6 µM [inhibitor, partial curve]",
Cc1cc(C(=O)Nc2ccccc2C(F)(F)F)no1,"inconclusive: 25.1 µM [inhibitor, partial curve]",
Nc1nc2c3ccccc3nc(C3CC3)n2n1,,inactive: -5.24%
O=C(CCCn1c(SCC(=O)c2ccc(O)c(O)c2)nc2ccccc2c1=O)NCC1CCCO1 (stereo not drawn),"inconclusive: 28.2 µM [inhibitor, partial curve]",
CC1CCN(c2nc3ccc(C(=O)NCCCN4CCCCC4C)cc3s2)CC1 (stereo not drawn),"inconclusive: 50.1 µM [inhibitor, single point]",
CCOc1ccccc1-n1c(CNc2ccc(F)cc2)nnc1SCC(=O)NCc1ccco1,,inactive: -12.6%
CCCc1nnc(N2C(=O)c3oc4ccc(F)cc4c(=O)c3C2c2ccc(C(=O)OC)cc2)s1 (stereo not drawn),,inactive: -4.3%
O=C(/C=C/c1ccc(N2CCCCC2)c([N+](=O)[O-])c1)c1ccc(O)cc1,"inconclusive: 20 µM [inhibitor, partial curve]",
CCOc1cc(/C=C(\C#N)C(N)=O)cc(CSc2ccccc2)c1O,,inactive: -3.78%
CC(C)[C@H](Nc1ccc(S(=O)(=O)N2CCOCC2)cc1[N+](=O)[O-])C(=O)OCC(=O)N(C(C)C)C(C)C,"inconclusive: 11.2 µM [inhibitor, partial curve]",
CCCCn1c(=O)n(CC(=O)NCc2ccc(C)cc2)c(=O)c2c1nc(CO)n2CCC,"inconclusive: 17.8 µM [inhibitor, partial curve]",
COc1ccc(-c2ccc(N(C)C)cc2)cc1C1C2C=CCC(C)C2C(=O)N1Cc1ccccc1 (stereo not drawn),,inactive: -3.86%
Cc1cc(C)n2nc(SCC(=O)Nc3cc(Cl)ccc3C)nc2n1,,inactive: 3.27%
CC(C)=CC(=O)OCC(=O)NC1CCCc2ccccc21 (stereo not drawn),"inconclusive: 22.4 µM [inhibitor, partial curve]",
CC(C)N(C(=O)CSc1nnnn1C1CCCC1)C(C)C,"inconclusive: 25.1 µM [inhibitor, single point]",
O=S(=O)(c1ccc(Br)s1)N1CCN(c2ccccn2)CC1,"inconclusive: 39.8 µM [inhibitor, partial curve]",
O=C(NC(=S)NCc1ccccc1)c1cccc(Cl)c1,,inactive: -22.7%
CC1(C)C(=O)C2(CCCCC2)C(=O)OC1c1cccs1 (stereo not drawn),"inconclusive: 5.62 µM [inhibitor, full curve, poor fit]",
Cc1ccc(C(C)(C)NC(=O)C2CCC(=O)N(C3CCCCCC3)C2)cc1 (stereo not drawn),,inactive: -9.31%
CC(=O)c1cccc(NC(=O)CN(c2ccc(C)cc2)S(=O)(=O)c2cccc3nonc23)c1,"inconclusive: 8.91 µM [inhibitor, partial curve]",
